Experimental data: the supplement of paper PMC9446081
Hit rate of the full screen: of about 39,000 compounds, about 220 (0.56%) showed activity. The list shows a part of the results.

These molecules were tested on Escherichia coli K-12 BW25113 (assay: relative growth (OD600 normalised to plate interquartile mean) (fraction); higher = less growth inhibition, active = 0.2 or less). Details: 50 µM; LB; incubation time: overnight (16-24 h).
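Further: static incubation at 37 °C against the wild-type strain, values averaged over two biological replicates.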

SMILES | relative growth
C[C@@H]1CN([C@H](C)CO)C(=O)c2cc(NS(C)(=O)=O)ccc2O[C@@H]1CN(C)S(=O)(=O)c1ccccc1 | inactive: 0.998
C[C@@H]1CN([C@H](C)CO)C(=O)c2cc(NS(C)(=O)=O)ccc2O[C@@H]1CN(C)C(=O)Nc1ccccc1 | inactive: 1.01
Cc1cc(C)c(-n2cccc2CN)c(C)c1 | inactive: 1.01
C[C@H]1CN([C@@H](C)CO)C(=O)Cc2cc(NS(=O)(=O)c3ccccc3)ccc2O[C@H]1CN(C)S(=O)(=O)c1ccc(F)cc1 | inactive: 1.01
Cc1ccc(S(=O)(=O)Nc2ccc3c(c2)C(=O)N([C@@H](C)CO)C[C@H](C)[C@@H](CN(C)C(=O)C2CCCCC2)OCCCC[C@H](C)O3)cc1 | inactive: 0.998
C[C@H]1CN([C@@H](C)CO)C(=O)Cc2cc(NC(=O)c3ccncc3)ccc2O[C@H]1CN(C)S(=O)(=O)c1ccccc1 | inactive: 1.01
CN(C)Cc1cn(CC[C@@H]2CC[C@@H](N)[C@H](CO)O2)nn1 | inactive: 1.01
C[C@@H]1CN([C@H](C)CO)C(=O)CCCn2nncc2CO[C@@H]1CN(C)S(=O)(=O)c1ccc(Oc2ccccc2)nc1 | inactive: 1.03
CCS(=O)(=O)Nc1ccc2c(c1)C(=O)N(C)[C@H]1CC[C@H](CC(=O)N3CCN(C)CC3)O[C@@H]1CO2 | inactive: 1
COC(=O)c1c(C(=O)OC)c2n(c(=O)c1-c1ccccc1)[C@@H]1c3ccccc3O[C@@](COCc3ccc(OC)cc3)([C@@H]1CO[Si](C)(C)C(C)(C)C)N2C | inactive: 1.03
CCOC(=O)OC(C)OC(=O)C1N2C(=O)C(NC(=O)C(N)c3ccccc3)C2SC1(C)C.Cl (stereo not drawn) | active: 0.0511
Cc1ccc(S(=O)(=O)N(C)C[C@@H]2Oc3ccc(NC(=O)c4ccncc4)cc3CC(=O)N([C@@H](C)CO)C[C@@H]2C)cc1 | inactive: 0.99
Cc1noc(C)c1NC(=O)N(C)C[C@@H]1OCCCC[C@@H](C)Oc2ccc(NC(=O)Cc3ccccc3)cc2C(=O)N([C@@H](C)CO)C[C@@H]1C | inactive: 1.01
C[C@@H]1CCCCO[C@H](CN(C)C(=O)Nc2ccccc2)[C@H](C)CN([C@@H](C)CO)C(=O)c2cc(NC(=O)Cc3ccccc3)ccc2O1 | inactive: 0.98
C=CCC[C@H](Cc1ccc(F)cc1)C(=O)OC[C@H]1CCCN1C(=O)[C@@H](CC=C)CC(=O)N(CCO)Cc1ccccc1 | inactive: 0.991
COc1ccccc1S(=O)(=O)N[C@@H]1CC[C@H](CCNC(=O)C2CCOCC2)O[C@H]1CO | inactive: 0.969
COc1ccc2c3c([nH]c2c1)[C@H](CO)N(C[C@]13CCN(CC1)C(=O)c1cccnc1)C(=O)c1cccnc1 | inactive: 1.01
C[C@H](CO)N1C[C@H](C)[C@H](CN(C)Cc2ccc3c(c2)OCO3)Oc2c(NC(=O)c3ccc(-c4nccs4)cc3)cccc2C1=O | inactive: 1
C[C@H]1CN([C@@H](C)CO)S(=O)(=O)c2ccc(C3=CCCCC3)cc2O[C@@H]1CN(C)Cc1cncnc1 | inactive: 1.04
CC(C)NC(=O)Nc1ccc2c(c1)CC(=O)N([C@H](C)CO)C[C@@H](C)[C@H](CN(C)S(=O)(=O)c1cccs1)O2 | inactive: 1.01

SMILES | relative growth
C[C@@H]1CN([C@H](C)CO)C(=O)c2cc(NS(=O)(=O)c3ccc(F)cc3)ccc2O[C@@H](C)CCCCO[C@H]1CN(C)Cc1ccccc1 | inactive: 0.999
CC(C)(C)CN | inactive: 1.01
C[C@H]1CN([C@@H](C)CO)C(=O)Cc2cc(NC(=O)NC3CCCCC3)ccc2O[C@@H]1CN(C)Cc1ccc(Cl)c(Cl)c1 | inactive: 1.02
COCCNC(=O)C[C@@H]1CC[C@@H](NS(=O)(=O)c2ccc(C)cc2)[C@@H](CO)O1 | inactive: 0.994
C[C@H]1CN([C@@H](C)CO)S(=O)(=O)c2ccc(C#CC(C)(C)O)cc2O[C@H]1CN(C)Cc1ccncc1 | inactive: 1
COc1ccc(NC(=O)Nc2ccc3c(c2)C(=O)N([C@@H](C)CO)C[C@H](C)[C@@H](CN(C)C(=O)C2CCCCC2)OCCCC[C@@H](C)O3)cc1 | inactive: 1.02
C[C@@H]1CN([C@H](C)CO)C(=O)c2cccc(NC(=O)CCCCCC(=O)Nc3ccccc3N)c2O[C@@H]1CN(C)C(=O)Nc1ccccc1 | inactive: 0.978
C[C@@H]1CCCCO[C@@H](CN(C)C(=O)NC2CCCCC2)[C@@H](C)CN([C@@H](C)CO)C(=O)c2cc(NC(=O)Nc3ccc4c(c3)OCO4)ccc2O1 | inactive: 1.01
C[C@H](CO)N1C[C@H](C)[C@@H](CN(C)Cc2ccc(Oc3ccccc3)cc2)Oc2c(NC(=O)CCC(F)(F)F)cccc2C1=O | inactive: 0.943
Cc1noc(C)c1NC(=O)N(C)C[C@H]1Oc2ccc(NC(=O)CCN3CCOCC3)cc2CC(=O)N([C@H](C)CO)C[C@H]1C | inactive: 0.981
COc1ccc(S(=O)(=O)Nc2ccc3c(c2)CC(=O)N([C@H](C)CO)C[C@H](C)[C@@H](CN(C)CC2CC2)O3)cc1 | inactive: 1.03
C[C@@H]1CN([C@H](C)CO)C(=O)c2cccc(NS(=O)(=O)c3ccccc3)c2O[C@@H]1CN(C)S(=O)(=O)c1cn(C)cn1 | inactive: 0.994
C[C@@H]1CN([C@H](C)CO)C(=O)CCCn2nncc2CO[C@@H]1CN(C)S(=O)(=O)c1ccc(Cl)cc1 | inactive: 0.981
C[C@@H]1CN([C@H](C)CO)C(=O)Cc2cc(NC(=O)Cc3cn(C)c4ccccc34)ccc2O[C@H]1CN(C)S(=O)(=O)c1cn(C)cn1 | inactive: 0.999
C[C@@H]1CN([C@@H](C)CO)C(=O)c2cccc(NC(=O)C3CCCCC3)c2O[C@H]1CN(C)Cc1ccc(C(=O)Nc2ccccc2N)cc1 | inactive: 1.04
Cn1cc(CN2C[C@H]3CCCO[C@H]3[C@H](NS(C)(=O)=O)C2)cn1 | inactive: 0.979
Cc1noc(C)c1NC(=O)N(C)C[C@H]1Oc2ccc(NC(=O)Cn3cnnn3)cc2CC(=O)N([C@@H](C)CO)C[C@H]1C | inactive: 1
Cc1ccc(S(=O)(=O)N(C)C[C@@H]2Oc3ccc(NC(=O)Nc4ccc(C(F)(F)F)cc4)cc3C(=O)N([C@@H](C)CO)C[C@@H]2C)cc1 | inactive: 1.01
C[C@H](CO)N1C[C@H](C)[C@H](CN(C)C(=O)CN(C)C)Oc2ncc(C#CC(C)(C)O)cc2C1=O | inactive: 0.999
C[C@@H]1CN([C@@H](C)CO)C(=O)c2cc(NS(=O)(=O)c3ccc(F)cc3)ccc2O[C@@H]1CN(C)Cc1ccc(-c2ccccc2)cc1 | inactive: 0.984

SMILES | relative growth
C[C@@H]1CN([C@@H](C)CO)C(=O)Cc2cc(NC(=O)Cn3cnnn3)ccc2O[C@H]1CN(C)Cc1ccc(C(=O)O)cc1 | inactive: 1.01
Cc1ccc(S(=O)(=O)Nc2cccc3c2O[C@@H](CN(C)C(=O)NC(C)C)[C@H](C)CN([C@H](C)CO)C3=O)cc1 | inactive: 0.997
CS(=O)(=O)N1CCOC[C@@]2(C1)CN(S(=O)(=O)C1CC1)CCO2 | inactive: 1.05
CC(=O)N1CCO[C@H]2CCN(C(=O)c3ccn(C)n3)C[C@H]21 | inactive: 0.994
CC(C)NC(=O)Nc1cccc2c1O[C@H](CN(C)S(=O)(=O)c1cn(C)cn1)[C@@H](C)CN([C@H](C)CO)C2=O | inactive: 1.01
C[C@@H]1CN([C@@H](C)CO)C(=O)c2cc(NC(=O)C3CC3)ccc2O[C@@H]1CN(C)S(=O)(=O)c1cn(C)cn1 | inactive: 0.899
O=C(O)C1CCC1 | inactive: 1.02
C[C@@H]1CN([C@@H](C)CO)C(=O)c2cccc(NS(=O)(=O)c3ccccc3)c2O[C@H]1CN(C)Cc1ccc(-c2ccccc2)cc1 | inactive: 1.02
C[C@@H]1O[C@@H](O[C@@H]2[C@@H](O)[C@H](O)[C@@H](CO)O[C@H]2c2c(O)cc(O)c3c(=O)cc(-c4ccc(O)cc4)oc23)[C@H](O)[C@H](O)[C@H]1O | inactive: 0.972
COc1ccc2c(=O)c(OC)c(-c3ccccc3)oc2c1 | inactive: 1.04
C=CCOC(=O)N(C)C[C@@H]1OCCCC[C@H](C)Oc2ccc(NC(=O)Nc3ccccc3)cc2C(=O)N([C@H](C)COC(=O)c2ccccc2)C[C@H]1C | inactive: 1.01
CO[C@H]1CN(C)C(=O)c2cc(NC(=O)CC(F)(F)F)ccc2OC[C@@H](C)N(S(=O)(=O)c2cn(C)cn2)C[C@H]1C | inactive: 0.975
CC(C)NC(=O)Nc1ccc2c(c1)C(=O)N([C@@H](C)CO)C[C@H](C)[C@H](CN(C)Cc1ccc3c(c1)OCO3)O2 | inactive: 0.934
C[C@@H]1CCCCO[C@H](CN(C)C(=O)Nc2ccccc2)[C@@H](C)CN([C@@H](C)CO)C(=O)c2cc(NC(=O)c3ccccc3)ccc2O1 | inactive: 1.03
Cc1cccc(C(=O)NN)c1 | inactive: 1
C[C@H](CO)N1C[C@H](C)[C@H](CN(C)C(=O)Nc2ccc(F)cc2)Oc2c(NC(=O)Nc3ccc(C(F)(F)F)cc3)cccc2C1=O | inactive: 0.987
COc1ccc(S(=O)(=O)N(C)C[C@@H]2OCCCC[C@H](C)Oc3ccc(NC(=O)c4ccccc4)cc3C(=O)N([C@H](C)CO)C[C@H]2C)cc1 | inactive: 1.04
CC(=O)O[C@H]1CC(C)(C)C[C@H]2[C@]13CO[C@@]21CC[C@@H]2[C@@]4(C)CC[C@H](O[C@@H]5O[C@H](C(=O)O)[C@@H](O)[C@H](O[C@@H]6O[C@H](CO)[C@H](O)[C@H](O)[C@H]6O[C@@H]6O[C@@H](C)[C@H](O)[C@@H](O)[C@H]6O)[C@H]5O[C@@H]5O[C@H](CO)[C@@H](O)[C@H](O)[C@H]5O)C(C)(C)[C@@H]4CC[C@@]2(C)[C@]1(C)C[C@H]3O | inactive: 0.974
